# In all, about 33,000 sequences were measured (“E-score (-0.5 to 0.5)”: median about -0.035, highest 2% from about 0.34 on). Some of the results follow.
# Biological target: T1, Mot3 (UniProt P54785)
# T1 sequence: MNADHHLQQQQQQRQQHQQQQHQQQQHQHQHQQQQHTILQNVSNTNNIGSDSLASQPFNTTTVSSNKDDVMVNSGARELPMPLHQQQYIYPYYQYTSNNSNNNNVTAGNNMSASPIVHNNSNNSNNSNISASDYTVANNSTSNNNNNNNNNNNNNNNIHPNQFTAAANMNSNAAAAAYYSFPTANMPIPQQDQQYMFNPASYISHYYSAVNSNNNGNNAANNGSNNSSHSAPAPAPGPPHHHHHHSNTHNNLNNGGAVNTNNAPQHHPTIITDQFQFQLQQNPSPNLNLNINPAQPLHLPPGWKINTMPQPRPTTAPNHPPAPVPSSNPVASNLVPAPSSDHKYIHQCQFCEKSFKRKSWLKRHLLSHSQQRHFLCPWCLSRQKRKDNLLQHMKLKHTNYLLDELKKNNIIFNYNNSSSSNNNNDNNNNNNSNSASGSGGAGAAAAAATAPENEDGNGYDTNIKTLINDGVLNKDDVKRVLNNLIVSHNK
# Experiment: PBM E-score (8-mer binding enrichment) (E-score (-0.5 to 0.5)); higher = stronger / more preferred TF binding; most listed sequences are background and not binding sites
# Conditions: protein concentration: 200 nM; construct: GST-full length
# Summary of the method: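 PURExpress in vitro transcription/translation supplied GST-tagged yeast transcription factors, either full-length or DNA-binding domain. Applied at about 100-200 nM to universal all-10-mer Agilent arrays double-stranded by primer extension, the bound protein was detected with fluorescent anti-GST. E-scores, modified Wilcoxon-Mann-Whitney statistics, were given by the Universal PBM Analysis Suite to ungapped eight-base words pooled with their reverse complements after masliner normalisation.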
row,Sequence,PBM E-score
1,ACTGGGGG,-0.293
2,AATTGCGG,0.0419
3,ATAAAGCC,-0.142
4,GTTCGAGA,0.0877
5,CACAAGGA,0.191
6,GTAGTAAC,0.121
7,CCCTATAG,-0.0649
8,AACGCCGC,-0.035
9,CTTACAAC,0.306
10,CTGAGCAG,0.00862
11,GATCCAAC,-0.131
12,CGTTTACC,0.0878
13,ACATACAC,0.332
14,AGGTATCC,0.174
15,GATAACAC,0.318
16,CAAGAATG,-0.0228
17,AATTCCCG,0.0119
18,CAGAACTC,-0.228
19,AATGATGG,0.0932
20,AGGGACTA,-0.204
21,ATGGTGAC,-0.224
22,CGATAGGC,0.232

row,Sequence,PBM E-score
1,CTTCATCA,-0.138
2,ATCAGGGC,-0.15
3,CGTGAAAA,0.141
4,CCCGGAGA,-0.143
5,GCTGACGA,-0.103
6,GCGTGCGA,-0.138
7,GGAGGAAA,0.0847
8,GTGCTGCA,-0.193
9,CACACAAG,0.151
10,GCTTTCTA,0.164
11,CGTCGTTA,-0.0621
12,AACTAATT,0.0646
13,GGCTGTTA,0.109
14,GTAGAACA,0.186
15,GGCGACCA,-0.226
16,TATACATA,0.336
17,CGAAGCAC,0.0915
18,ACAGCACT,0.102
19,ACCTCGCC,-0.271
20,AAAACTGG,-0.0272
21,CAATGTTA,0.232
22,CGGGACAC,-0.149

row,Sequence,PBM E-score
1,TGGAGACA,-0.112
2,GTCGGACA,-0.0896
3,CACACATC,0.134
4,CAAGCAAA,0.0713
5,CCATCTGA,-0.177
6,TAAGCTTA,0.0829
7,TTCAAAAA,0.0649
8,ACTGCATG,0.186
9,TCAGTTAA,-0.00974
10,AATAGCCT,-0.143
11,ACAGCATG,0.123
12,CCAGTGTA,0.0502
13,GCTTTAGA,-0.0931
14,AGGATATA,0.0691
15,ACATCCGA,-0.0925
16,TAATGACA,0.164
17,ACACAATG,0.263
18,AAGACGCG,0.191
19,CAAGGGGC,-0.148
20,GAGGCACC,0.463
21,ACCTGTTG,0.206
22,CCGCTACG,-0.246

row,Sequence,PBM E-score
1,CGGTTCTC,-0.212
2,CCACGTCC,-0.368
3,GGCGTACA,0.167
4,ATATTCAC,-0.0205
5,ACGACTTC,-0.0985
6,CTGGGCAA,-0.192
7,CAATTTAA,0.145
8,ACTGGTAG,0.0595
9,CACTTATC,-0.0767
10,AAAATAGC,-0.204
11,CAGCCTCA,-0.197
12,ACTTTTTC,-0.0449
13,CGATCGCG,-0.102
14,CGTGTTGC,0.242
15,AGCAAACT,0.16
16,ACGGACAA,-0.0745
17,AGTAACTG,0.0377
18,ACAATCGG,-0.0755
19,GCATTGAC,-0.0204
20,CACAGGAA,0.385
21,CATCCATA,-0.183
22,CCTCCGCA,-0.0262

row,Sequence,PBM E-score
1,GGGTGTGA,-0.0424
2,GCTAGCAC,-0.186
3,TACCCATA,-0.173
4,GCACTCGC,-0.168
5,GCAGCGGA,-0.222
6,AAGTGACA,0.183
7,AGACAAAA,0.0854
8,ATGCTGGA,-0.0404
9,CACCGCAA,-0.0276
10,GCTCCTCC,-0.203
11,GAGCTTCC,-0.165
12,AATCTCAA,-0.0782
13,CCACCTCA,-0.247
14,ACTTAGCA,-0.0419
15,GGTGTTAC,0.164
16,AACACGAC,0.344
17,AACATGGA,0.312
18,GATGTGCC,0.302
19,GGGATAGA,-0.258
20,GACCTGGC,-0.201
21,CACAGTGG,-0.0147
22,GGACCGAC,-0.193

# Reference: the supplement of paper PMC3334620
